Experimental data taken from PubChem BioAssay AID686978 (National Center for Advancing Translational Sciences (NCATS), 2013).
Where “and” joins values, the source holds several entries; their conditions need not be identical. Equal values may be shown once. About 64,000 (15%) of roughly 420,000 compounds were called active. Inconclusive means that the source gave no clear call. Such entries were picked first, then a sample of the others. Calls follow the shape of the dose curve; as a rule, active = well fitted inhibition curve with a large enough effect; inconclusive = small, poorly fitted or top-dose-only effect; inactive = flat fitted curve, though single readings scatter. A potency beside an inconclusive call is a rough fit, not a confirmed value.

Assay: qHTS for Inhibitors of human tyrosyl-DNA phosphodiesterase 1 (TDP1): qHTS in cells in absence of CPT; also: nearly all actives have a fitted effect of over 55% in size
Conditions: DT40 Tdp1-/- hTDP1 cells, no CPT, ATP luminescence, 48 h; activity change, negative = growth inhibition: at 46.2 µM (top of the series) unless noted
Summary of the method: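 Camptothecin absent (DMSO only). Human TDP1-complemented DT40 knockout cells, 400 cells/well, 37 °C for minimum 48 hr; ATP measured via CellTiter-Glo, 30 min dark incubation, luminescence.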
% is scaled to controls: 0 for no effect and ±100 for the full control effect; potency is read from the fitted curve at half-maximal effect; tags tell the direction and shape of the fitted curve.

Row | Structure (SMILES) | Potency | activity change, negative = growth inhibition
1 | CC1=CC(C)(C)[N+](C)=CN1c1ccccc1 | inconclusive: 18.4 µM [inhibitor, single point] | 
2 | COc1cc(C(=O)NCCC2=CCCCC2)cc(OC)c1OC | inconclusive: 13 µM [inhibitor, partial curve] | 
3 | Cc1nc2ccccc2n1CCc1ccccc1 | inconclusive: 16.4 µM [inhibitor, single point] | 
4 | Cc1csc(=O)n1CCC(=O)OCC(=O)Nc1ccc(S(N)(=O)=O)cc1 | inactive | 
5 | Cc1cccc(CCN2C(N(C)C)=NC[C@@H]2C)c1 | inconclusive: 14.6 µM [inhibitor, single point] | 
6 | CCCn1cc(NC(=O)c2cc(-c3ccccc3)on2)cn1 | active: 23.1 µM | 
7 | CCOC(=O)/C(=N\Nc1ccc(C(C)=O)cc1)c1csc(Nc2ccccc2)n1 | active: 10.3 µM | 
8 | COc1ccc(-c2c(-c3ccc(OCC(=O)NN)cc3O)n[nH]c2C(F)(F)F)cc1 | inactive | 
9 | Cc1cccc(NC(=S)N2CCN(c3ccccn3)CC2)c1 | inconclusive: 0.461 µM [inhibitor, full curve, poor fit] | 
10 | Cc1ccc(-n2nnnc2SCC(=O)N2c3ccccc3NC(=O)C2(C)C)cc1 | inconclusive: 20.6 µM [inhibitor, partial curve] | 
11 | Cc1cc(C(=O)Nc2ccc(N3CCCCC3)cc2)no1 | inactive | 
12 | CCOC(=O)c1cccc(NC(=O)c2ccc3nc(CCc4ccccc4)oc3c2)c1 | inconclusive: 16.4 µM [inhibitor, partial curve] | 
13 | CCOc1ccc(S(=O)(=O)N2CN3CCN(C3)C2)cc1 | inconclusive: 20.6 µM [inhibitor, single point] | 
14 | CCN(CC)CCn1c2c(c(SCC(=O)Nc3cc(C)cc(C)c3)nc1=O)CCC2 | inactive | 
15 | O=C(COC(=O)c1ccccc1-c1nc2ccccc2s1)NC1CCS(=O)(=O)C1 (configuration not stated) | inconclusive: 13 µM [inhibitor, single point] | 
16 | COc1ccc(C(=O)Nc2ccc(F)cc2F)cc1 | inconclusive: 7.31 µM [inhibitor, partial curve] | 
17 | COc1cc(/C=C(\C#N)C(=O)NC(C)C)ccc1OCc1ccc(C(=O)O)cc1 | inconclusive: 6.51 µM [inhibitor, full curve, poor fit] | 
18 | CCOC(=O)C(C)(C)Sc1nc2c(cnn2-c2ccc(Cl)cc2)c(=O)[nH]1 | inconclusive: 18.4 µM [inhibitor, partial curve] | 
19 | CCN(CC)S(=O)(=O)c1ccc2nc(SC)sc2c1 | inactive | 
20 | Cc1cc(OCC(=O)N(C)c2ccccc2)cc2c1C(=O)CC(C)(C)O2 |  | inconclusive: -32.1% [inhibitor]
21 | C=CCc1cccc(/C=N/NC(=O)COc2ccc(-n3cnnn3)cc2)c1O | inconclusive: 29.1 µM [inhibitor, single point] | 
22 | Cn1c(SCC(=O)OC2CCCCC2)nnc1-c1ccc(S(=O)(=O)N2CCCC2)cc1 | inactive | 
23 | CN(CCOc1ccccc1)c1ccc(S(=O)(=O)N2CCCCC2)cn1 | active: 20.6 µM | 
24 | COCc1c(C(=O)N2CCN(CCOc3ccccc3)CC2)oc2ccccc12 | inconclusive: 29.1 µM [inhibitor, single point] | 

Row | Structure (SMILES) | Potency | activity change, negative = growth inhibition
25 | CCC1CCC(N2CCN(c3ccc([N+](=O)[O-])cc3)CC2)CC1 (configuration not stated) | inconclusive: 25.9 µM [inhibitor, single point] | 
26 | CCOC(=O)C(=CNc1ccc2c(c1)CCN2C(C)=O)C(=O)OCC | active: 7.31 µM | 
27 | CC1(Oc2cccc(F)c2)CCN(Cc2ccccc2OC(F)F)C1 (configuration not stated) | inconclusive: 29.1 µM [inhibitor, single point] | 
28 | CCOc1ncccc1C(=O)Nc1cc(S(=O)(=O)N2CCCCCC2)ccc1OC | inactive | 
29 | COc1ccc(Br)c(C(=O)N2CCCC2(C)C(=O)NCC(C)C)c1 (configuration not stated) | inconclusive: 25.9 µM [inhibitor, single point] | 
30 | O=C(O)c1ccc(-n2cccc2/C=C2/SC(=O)N(CC(=O)N3CCCC3)C2=O)cc1 | inactive | 
31 | CCCN1CCc2c(sc3nc(SC)n(-c4ccccc4)c(=O)c23)C1 | active: 5.8 µM | 
32 | Nc1nc(SCc2cccc(Br)c2)n[nH]1 | inconclusive: 16.4 µM [inhibitor, partial curve, poor fit] | 
33 | CCCCN(CC)CCNC(=O)c1cc2c(=O)[nH]c3ccccc3c2s1 | inconclusive: 16.4 µM [inhibitor, single point] | 
34 | O=C(NCCO)C(=O)Nc1cc2c3c(c1)CC(=O)N3CCC2 |  | inconclusive: -31.7% [inhibitor]
35 | COc1ccc(S(N)(=O)=O)cc1C(=O)NNC(=O)C1COc2ccccc2O1 (configuration not stated) | inactive | 
36 | OC1(C#Cc2c(-c3ccsc3)oc3ccc(N4CCOCC4)cc23)CCCCC1 | inconclusive: 20.6 µM [inhibitor, single point] | 
37 | CCCc1cc(NCCOCCO)n2c(nc3ccccc32)c1C#N | active: 11.6 µM | 
38 | Cc1ccccc1OCC(=O)Nc1ccc2nc(SCC(N)=O)sc2c1 | inconclusive: 11.6 µM [inhibitor, partial curve] | 
39 | Cc1ccc(C(=O)OCC(=O)NNC(=O)c2cccs2)c(O)c1 | inactive | 
40 | O=C(CCl)N1CCN(S(=O)(=O)c2ccc3c(c2)CCC3)CC1 | active: 0.651 µM | 
41 | Cc1ccc(C2CC(C(F)(F)F)n3ncc(C(=O)NCc4ccco4)c3N2)cc1 (configuration not stated) | inconclusive: 25.9 µM [inhibitor, single point] | 
42 | CN(CC(=O)Nc1ccc(Cl)c(Cl)c1)C1CCCCC1 | inconclusive: 32.6 µM [inhibitor, single point] | 
43 | CC(C)(C)C(=O)Nc1cccc(-c2nc3ccccc3c(=O)o2)c1 | inactive | 
44 | COC(=O)c1ccc(N2CCCCC2)c(NC(=O)c2ccco2)c1 | active: 23.1 µM | 
45 | CC1=C(C(=O)Nc2ccccc2)C(c2ccc[nH]2)n2ncnc2N1 (configuration not stated) | inconclusive: 35.5 µM [inhibitor, single point] and inconclusive: 18.4 µM [inhibitor, single point] | 
46 | CCOC(=O)c1ccc(NC(=O)Nc2ccc(OC)c(OC)c2)cc1 | inconclusive: 29.1 µM [inhibitor, single point] | 
47 | COC(=O)[C@@]1(Cc2ccccc2)[C@H]2C(=O)N(C)C(=O)[C@H]2[C@H]2CN=C(SC)N21 | inactive | 
